From the supplement of paper PMC2702839 come the findings set out here.

Counter-ions that a name gives are not always drawn. The list shows a part of the results.

The experiment concerns Schistosoma mansoni schistosomula. The experiment is described as follows: phenotypic hit in primary schistosomula screen (any phenotype vs DMSO control) (binary (1 = hit, 0 = no phenotype)); higher = active (phenotype induced). As to conditions: 1 µM; time (d): 7.
As to `COC(=O)CC1C(C)(C)C(OC(C)=O)[C@@H]2[C@@H](OC(C)=O)[C@]34O[C@@]2(O)[C@]1(C)C3CC[C@]1(C)C4=CC(=O)O[C@H]1c1ccoc1` (stereo partly drawn) [xylocarpus a], the phenotypic hit is inactive: 0.

Take `O=C(O)Cc1cc(I)c(Oc2cc(I)c(O)c(I)c2)c(I)c1` [tetrac]: the phenotypic hit was inactive: 0.

For `CCN(CC)CCOc1ccc2c(c1)C(=O)c1cc(OCCN(CC)CC)ccc1-2` [tilorone], the phenotypic hit is inactive: 0.

`C=C[C@@]1(C)CC(=O)[C@]2(O)[C@@]3(C)[C@@H](O)CCC(C)(C)[C@@H]3[C@H](O)[C@H](OC(C)=O)[C@@]2(C)O1` [colforsin]: the phenotypic hit was inactive: 0.

On to `CCN(CC)C(=S)SSC(=S)N(CC)CC` [disulfiram], for which the phenotypic hit is inactive: 0.

On to `C=C/C(C)=C\CC1C(C)(O)CCC2C(C)(C)CCCC21C` (stereo not drawn) [abienol], for which the phenotypic hit was inactive: 0.

As to `C/C(=C(\CCOP(=O)(O)O)SC(=O)c1ccccc1)N(C=O)Cc1cnc(C)nc1N` [benfotiamine], the phenotypic hit is inactive: 0.

Take `Nc1c2c(nc3ccccc13)CCCC2` [9-Amino-1,2,3,4-tetrahydroacridine hydrochloride]: the phenotypic hit was inactive: 0.

With `O=c1cc(-c2ccccc2)oc2cc(O)cc(O)c12` [chrysin], the phenotypic hit is inactive: 0.

Regarding `C#C[C@]1(O)CC[C@H]2[C@@H]3CCc4cc(O)ccc4[C@H]3CC[C@@]21C` [ethinyl estradiol], the phenotypic hit is active: 1.

For `Cc1occc(=O)c1O` [larixinic acid], the phenotypic hit was inactive: 0.

Regarding `CC(C)=CC1C(CO)C1(C)C` (stereo not drawn) [chrysanthemyl alcohol], the phenotypic hit was inactive: 0.

As for `CC1=CCC2C3(C)C1=CC(=O)OC3CC1C(C)(C)CC(O)C(O)C12C` (stereo not drawn) [merogedunin, 3-deoxo-1alpha,3alpha-dihydroxydihydro-], the phenotypic hit was inactive: 0.

As to `CC1(C)CC23C(=O)CCC(O)C2(C)CCC13` (stereo not drawn) [3-nor-3-oxopanasinsan-6-ol], the phenotypic hit was inactive: 0.

In the case of `COc1cc2c(cc1OC)C1(O)C(=O)c3ccc(O)c(C(=O)O)c3OC1CO2` (stereo not drawn) [12a-hydroxy-9-demethylmunduserone-8-carboxylic acid], the phenotypic hit is inactive: 0.

Turning to `CCC(C(N)=O)c1ccccc1` (stereo not drawn) [fenbutyramide], the phenotypic hit was inactive: 0.

In the case of `CC1(O)/C=C\C=C(\CO)C2CC(C)(C)C2(O)CC1` (stereo not drawn) [punctaporin b], the phenotypic hit was inactive: 0.

On to `COc1ccc(C(=O)c2ccccc2)c(O)c1` [oxybenzone], for which the phenotypic hit was inactive: 0.

On to `COc1c(N2C[C@@H]3CCCN[C@@H]3C2)c(F)cc2c(=O)c(C(=O)O)cn(C3CC3)c12` [moxifloxacin hydrochloride], for which the phenotypic hit was inactive: 0.

For the molecule `CC(=O)OCC(=O)[C@@]1(O)[C@H](C)C[C@H]2[C@@H]3CCC4=CC(=O)C=C[C@]4(C)[C@@]3(F)[C@@H](O)C[C@@]21C` [dexamethasone acetate], the phenotypic hit was inactive: 0.

With `CC1(C)C(=O)C=CC2(C)C1C=CC1(C)C2CCC2(C)C(c3ccoc3)OC(=O)C3OC312` (stereo not drawn) [7-desacetoxy-6,7-dehydrogedunin], the phenotypic hit was inactive: 0.

As to `COc1ccc(C(=O)CC(=O)c2ccc(C(C)(C)C)cc2)cc1` [avobenzone], the phenotypic hit is inactive: 0.

For `Cc1ccc(C(C)C)c(O)c1C(=O)O` [orthothymotinic acid], the phenotypic hit was inactive: 0.

`CC1(C)C(=O)[C@H]2C[C@]3(O)C4=CC(=O)O[C@@H](c5ccoc5)[C@@]4(C)CCC3[C@](C)(C2=O)[C@H]1CC(=O)O` (stereo partly drawn) [8-hydroxycarapinic acid]: the phenotypic hit is inactive: 0.

Take `Nc1nc2c(ncn2COCCO)c(=O)[nH]1` [Acyclovir]: the phenotypic hit is inactive: 0.

Take `NCCSSCCN` [cystamine dihydrochloride]: the phenotypic hit is inactive: 0.

As to `CCCCCN(CCCCC)C(=O)C(CCC(=O)O)NC(=O)c1ccc(Cl)c(Cl)c1` (stereo not drawn) [Lorglumide sodium], the phenotypic hit is inactive: 0.

In the case of `CC(C)c1c(O)ccc2c1CC[C@H]1C(C)(C)CCC[C@]21C` [totarol], the phenotypic hit was inactive: 0.

Consider `C=C1C(=O)O[C@H]2C[C@@H]1C(OC(C)=O)C/C(C)=C/CC/C(C)=C/CC[C@@]2(C)O` (stereo partly drawn) [crassin acetate], for which the phenotypic hit is inactive: 0.

With `CCC/C=C/C=C/C1C[C@@H](O)[C@@H](O)C(=O)[C@H]1C=O` (stereo partly drawn) [frequentin], the phenotypic hit was inactive: 0.

Turning to `CCCC1O[C@@H]2C[C@H]3[C@@H]4CCC5=CC(=O)C=C[C@]5(C)[C@H]4[C@@H](O)C[C@]3(C)[C@]2(C(=O)CO)O1` (stereo partly drawn) [budesonide], the phenotypic hit is inactive: 0.

As to `O=NN(CCCl)C(=O)NCCCl` [carmustine], the phenotypic hit is inactive: 0.

Consider `Nc1nc(N)c2nc(CNc3ccc(C(=O)N[C@@H](CCC(=O)O)C(=O)O)cc3)cnc2n1` [Aminopterin], for which the phenotypic hit was inactive: 0.

For the molecule `CC(C(=O)O)c1cccc(C(=O)c2ccccc2)c1` (stereo not drawn) [ketoprofen], the phenotypic hit was inactive: 0.

As for `C[C@H]1O[C@@H](n2cc(F)c(=O)[nH]c2=O)[C@H](O)[C@@H]1O` [5-fluoro-5'-deoxyuridine], the phenotypic hit was active: 1.

For the molecule `O=c1c(-c2ccc(O)cc2)coc2cc(O)ccc12` [Daidzein], the phenotypic hit is inactive: 0.

In the case of `C=C1[C@@H]([C@@]2(C)C=CC(=O)C(C)(C)[C@@H]2CC(=O)OC)CC[C@@]2(C)[C@H](c3ccoc3)OC(=O)[C@H]3O[C@]132` [andirobin], the phenotypic hit is inactive: 0.

Regarding `CC(=O)CCCCn1c(=O)c2c(ncn2C)n(C)c1=O` [Pentoxifylline], the phenotypic hit is inactive: 0.

For `O=C(O)C=C1CCCc2ccccc2C1O` (stereo not drawn), the phenotypic hit was inactive: 0.

As to `COc1ccc(-c2coc3cc(O)ccc3c2=O)c(OC)c1O` [koparin 2'-methyl ether], the phenotypic hit was inactive: 0.

Turning to `O=C(CCc1ccc(O)cc1)c1c(O)cc(O)cc1O[C@@H]1OC(CO)[C@@H](O)[C@@H](O)C1O` (stereo partly drawn) [phloridzin], the phenotypic hit was inactive: 0.

With `C/C1=C2/[N-][C@H]([C@H](CC(N)=O)[C@@]2(C)CCC(=O)NC[C@@H](C)OP(=O)([O-])O[C@H]2[C@@H](O)[C@@H](n3cnc4cc(C)c(C)cc43)O[C@@H]2CO)[C@]2(C)N=C(/C(C)=C3N=C(/C=C4N=C1[C@@H](CCC(N)=O)C\4(C)C)[C@@H](CCC(N)=O)[C@]\3(C)CC(N)=O)[C@@H](CCC(N)=O)[C@]2(C)CC(N)=O.[Co]` [cobalamine], the phenotypic hit is inactive: 0.

As for `CCCCCNC(=N)N/N=C/c1c[nH]c2ccc(OC)cc12` [tegaserod maleate], the phenotypic hit is inactive: 0.
